T1: UNK ZnF1-3 (human, UniProt Q9C0B0 31-174)
T1 sequence: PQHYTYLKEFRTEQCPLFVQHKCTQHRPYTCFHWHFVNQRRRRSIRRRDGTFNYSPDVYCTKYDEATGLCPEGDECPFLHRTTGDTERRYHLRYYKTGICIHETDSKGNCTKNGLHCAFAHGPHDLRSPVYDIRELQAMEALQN

B1: chr2:91074313:91074314:-_ENSMUSG00000002109_ENSMUST00000150427|mus_mus|FALSE|FALSE (ssRNA)
RNA: GGGAGUUCUACAGUCCGACGAUCAGGUCGCCCCUUUAAGGAAGAUAGGUUUGUCCUUGAUGCCAAAGUUCCAGAUCAUAAUAUCUCCCCCUUUGGAGCCCACAGCCAGGGUACUGGGAUGAGUCGGGUGCCAUGCCAAGGACGCAACAGAGGAUUGAGCAUCA
B2: chr17:1257564:1257565:-_ENSG00000108953_ENST00000571732|hu_mus|FALSE|FALSE (ssRNA)
RNA: GGGAGUUCUACAGUCCGACGAUCACCCUGCAUGUCUGAGGUCCACAGCGUCAGGUUAUCACGUAGCAGCUGCAUGAUGAGCGUAGAGUCCUUAUAGCUUUCUUCACUCAGCGUGUCCAGUUCUGCAAUUGCGUCAUCAAAAGCCAACAGAGGAUUGAGCAUCA
B3: 123982623_123982743_2596_CDS_ENSG00000168916_ENST00000504926|human|control|control (ssRNA)
RNA: GGGAGUUCUACAGUCCGACGAUCGGCCGAUGGCAUAUUUUUCUGUUUAGUUUCCUCCUUGCCCAGCUCUUUCAAGGGGAGCUCACUUUUCCUUUCACAGUCUCCUCUCCCAGUCUGGGCCAUUUUCUGCUCUGCCAGCCUCUGCAACAGAGGAUUGAGCAUCA
B4: 169799468_169801611_1790_CDS_ENSG00000000460_ENST00000359326|human|control|control (ssRNA)
RNA: GGGAGUUCUACAGUCCGACGAUCCAACAGUAUUGAUAGGUUGAUGAGUUGAUAACAUUCUCCAGGGCAUGACUUUAUCAGAUGAGCCACUAUGGUGACAUGGUGUGCACACAGUUCAGCAGUCCCAUAUCGAGCAAGGAAGCACAACAGAGGAUUGAGCAUCA
B5: chr1:109605286:109605287:-_ENSG00000197780_ENST00000461096|hu_mus|hu_hu_hu_mus_True|88_88 (ssRNA)
RNA: GGGAGUUCUACAGUCCGACGAUCAAGUUUCAGAGUAACAUUCAGUAUACUUAAAUCAUGCAAUUAUCCUUAUUAUAAGCUAAGCAGAAUAAUAAUUUAAUACCGUAAGUGAACUACACACAAAGCCUGAACCGCGAAAAUGGUCAACAGAGGAUUGAGCAUCA
B6: chr7:74146866:74146867:+_ENSG00000077809_ENST00000416070|hu_hu|FALSE|FALSE (ssRNA)
RNA: GGGAGUUCUACAGUCCGACGAUCUUCCUUUGCAAGUAAUAUCCUCUCCAGGCGAGGAAUUCCGUAAGUAGAUGGCCUUCUAAAAGGAAUUCCUUCAGGAAGUCCUUCUACAUAAAGAUCUUCAACAUGAGACUGGAAAAGAGGCAACAGAGGAUUGAGCAUCA
B7: chrX:71482573:71482574:-_ENSMUSG00000031328_ENSMUST00000144429|mus_hu|motif|central (ssRNA)
RNA: GGGAGUUCUACAGUCCGACGAUCCUGCCACUGAGAAAGGGCUCUUAGGGAUGGGAUCCCCUCCAUAAGUGACAUUGACGCCGGCUGGACCCUGCUGGACAGGCGUGUACUUGACUGUGUAGGUGUUGUCAUGGUGGUCGAUGACAACAGAGGAUUGAGCAUCA
B8: 7358052_7359150_1645_CDS_ENSMUSG00000024969_ENSMUST00000032557|mouse|control|control (ssRNA)
RNA: GGGAGUUCUACAGUCCGACGAUCUUCCAGCUCAGAGCUCUUGUAGCCAAGGAGCAGAUAGGUAGCCAUCACUUCGUUGUACCUCUGGCCUACCAGCGAGUCCUGGAUCUCUUCCCGUGUGUAACCCAUUGACACCAUCAACUCCAACAGAGGAUUGAGCAUCA
B9: chr11:87793471:87793472:-_ENSMUSG00000020483_ENSMUST00000020775|mus_mus|mus_mus_mus_hu_False|48_88 (ssRNA)
RNA: GGGAGUUCUACAGUCCGACGAUCUGGACUUGAAAAUAAAAGAAUAAGCUAGAUUUCCCACCCCCCCACAUUGUCAACCCUACACGAGUUCUGAAUGGGCGACUCAUGAAAAUCAGCAGCUCAAACGGCAAUGACCACCCCACCCAACAGAGGAUUGAGCAUCA
B10: chr16:45382771:45382772:-_ENSMUSG00000022661_ENSMUST00000163230|mus_mus|mus_mus_mus_hu_True|1_68 (ssRNA)
RNA: GGGAGUUCUACAGUCCGACGAUCCUGGGUCAUGUUAUAAGACAAAUGGACAGGGAGGGCAUGCUUCUGUAAAGAUGUGAGCUAUUGUCUAAGACUAACAAUAUUUAUCUAGCUAUAAAAAUAAGUUAAAUGAAUAAACAUUACCAACAGAGGAUUGAGCAUCA
B11: 76126223_76214478_1189_CDS_ENSMUSG00000034098_ENSMUST00000038364|mouse|control|control (ssRNA)
RNA: GGGAGUUCUACAGUCCGACGAUCCUUCCUAGAUAUGUCAUCACUGUUGGGAUUCUCAUUUUCUUGUGUAAUAUACUUUUGAUUUUGUAAGUCUAAAAGCAUACUUUUCAUCUUGCUGUAUUCAAUGGCCAUGCAGUUGUCCCCCAACAGAGGAUUGAGCAUCA
B12: chr7:118218646:118218647:-_ENSMUSG00000005610_ENSMUST00000162415|mus_mus|FALSE|FALSE (ssRNA)
RNA: GGGAGUUCUACAGUCCGACGAUCUUCCUGUUUGAGUAAACUGAUUAAAGAGCUUGCUUUUUCUUUAUCUUCAUCACUUCUAUCAAGUGACAGGAUGAUCACUUUGCUUAGCAUCUCAGGAAGAAAGUGUUUUGGAGCUCUCAUCAACAGAGGAUUGAGCAUCA
B13: chr11:69480760:69480761:-_ENSMUSG00000059796_ENSMUST00000163666|mus_mus|motif|central (ssRNA)
RNA: GGGAGUUCUACAGUCCGACGAUCUGGGGGGGGAAGGAGACGGCGCCUGGGGCAGAGCCUACCCCAAAGAAAAGGGUGUCGGAAAUGUUCACGGUUCCUUCUUUUUGCCUCAAAAAGUGACAUUUAUUCAUAGAGAAAAAAAACCAACAGAGGAUUGAGCAUCA
B14: 55424567_55428146_759_CDS_ENSMUSG00000029778_ENSMUST00000070756|mouse|control|control (ssRNA)
RNA: GGGAGUUCUACAGUCCGACGAUCAGCAUCGAAGUAAUGGGGGAAGGGCUCCGACCAGCCAUCCUCAGUGCAGUUCCGGCCCACGACCCCCAUGUCUGUGAUCUCCAAGGAAUUACUAUCAGCAAAGCCAGAAUCCCCUAUGGUCAACAGAGGAUUGAGCAUCA
B15: chr1:121469438:121469439:-_ENSMUSG00000026383_ENSMUST00000052404|mus_hu|FALSE|FALSE (ssRNA)
RNA: GGGAGUUCUACAGUCCGACGAUCCUGGCUGUUUAUGUUAACAUCGAUGUUGGAUCGAGGGGACAGCAAAGGACUGUUCUCCAUCUCAAGCUGUUUGAGCUUCUCUGAGGUGUCUUUUAAUGUCUCAUAUUCAACUUCAGGUUCCAACAGAGGAUUGAGCAUCA
B16: chr16:32084594:32084595:-_ENSMUSG00000023791_ENSMUST00000096109|perfect_dup|FALSE|FALSE (ssRNA)
RNA: GGGAGUUCUACAGUCCGACGAUCAGAAAACACUUAGCUGUACAAAACUUACAGGGAAAAGUGGCCAUAUUUGAAAACAGCUAAAAGGAUCAAAGUAGAACACAGAAUCGUAAUGAGCAGCGUCACAGAACACACUAAAGAGGUCAACAGAGGAUUGAGCAUCA
B17: chr2:39052001:39052002:-_ENSMUSG00000026753_ENSMUST00000028087|mus_mus|FALSE|FALSE (ssRNA)
RNA: GGGAGUUCUACAGUCCGACGAUCCAACUGGUAUCAAAUCAACACAUCAAUGCUACAAGUAUUAAAUGUUUUUCUAAUACUAUAGAAAUAAAAACAUUAAUAUGGCAGUUAUGUUCUUUAGGCACAAUUUAGUGAUUUUUUUAACAACAGAGGAUUGAGCAUCA
B18: chr6:75965845:75965846:-_ENSG00000112697_ENST00000230461|hu_mus|FALSE|FALSE (ssRNA)
RNA: GGGAGUUCUACAGUCCGACGAUCAUUUGGUUUCAGAAUAUAAAAUUAAAUGGUGAUGUCAGCAGUGUUACUACUGUUUCUAUAUUUAUGAUUAAUUACUAGCAGUACAACUCCCAGAAGGAAAGAGAUGGAUCCAAUAGUGAUCAACAGAGGAUUGAGCAUCA
B19: chr18:34657717:34657718:-_ENSMUSG00000036501_ENSMUST00000040506|mus_mus|motif|central (ssRNA)
RNA: GGGAGUUCUACAGUCCGACGAUCUCAUUGUCUGGAUGUCCUCCCUGCUGCAGCUCAUCAAGUGGAAUUCCAAAUAUUUUGCGGGCAAGAUCGGAGUUGCAGUUACUCAAGGAAGGGGAGGAGCUCUUCCUCAUAGCUUUUUUGCAACAGAGGAUUGAGCAUCA
B20: chr16:36052476:36052477:-_ENSMUSG00000003955_ENSMUST00000004057|mus_hu|FALSE|FALSE (ssRNA)
RNA: GGGAGUUCUACAGUCCGACGAUCUUCAAAUCAGAGCUUCUGGUAAGCCUUAGAGAUGAGGAAACAUCUCUUUCACAUAACCUAAAACAGCUUCUCAUAAUUGCACUGGCAAACAGUUCUUAUAAGAUACUUAAAUCUUUGCGACAACAGAGGAUUGAGCAUCA
B21: chr6:42629286:42629287:-_ENSMUSG00000036667_ENSMUST00000045054|mus_hu|FALSE|FALSE (ssRNA)
RNA: GGGAGUUCUACAGUCCGACGAUCGAAUAAUACCUUAUGGCCAGUCACAACCACCCGGCCCCGGCCAUAGCGGGCAGCCGCUAUAACACAGCCAUGGUAGGAAUCUAACCCUAGAGGAAAGGCUAAAGCCCCAUGCACUAGCAGCAACAGAGGAUUGAGCAUCA
B22: 82409221_82409341_1242_CDS_ENSG00000117114_ENST00000335786|human|control|control (ssRNA)
RNA: GGGAGUUCUACAGUCCGACGAUCAUACUGGUUGGGGAAGGGAACAUCUACAUAUUCUCCUCGGUUUAAUCGGGUAUUAUAAAUGUAAUCAAUUGAGUUCUUGCCUGUUUCACUUUCAUUGUCUUGAUAAACUGACCUAACCACCAACAGAGGAUUGAGCAUCA

The other results are listed elsewhere or left out.

In this test the target is T1, UNK ZnF1-3. In words: nsRBNS (natural sequence RNA bind-n-seq); RBNS binding buffer (assumed for nsRBNS): 25 mM Tris pH 7.5, 150 mM KCl, 3 mM MgCl2, 0.01% Triton X-100, 500 ug/ml BSA, 20 U/ml SUPERase-In, 4 C; UNK is unkempt and MSI1 is Musashi-1; names of the RNAs are library labels; protein concentration not given here; high values mean tight binding.
For the molecule B1, the binding signal is 1.3 enrichment R.
Regarding B2, the binding signal worked out at 0.947 enrichment R.
B3 showed a binding signal of 0.549 enrichment R.
B4 returned a binding signal of 1.25 enrichment R.
Regarding B5, the binding signal came to 0.691 enrichment R.
B6 registered a binding signal of 0.807 enrichment R.
In turn, B7 displayed a binding signal of 0.851 enrichment R.
The molecule B8 returned a binding signal of 1.05 enrichment R.
In turn, B9 had a binding signal of 1.8 enrichment R.
In turn, B10 gave a binding signal of 2.24 enrichment R.
As to B11, the binding signal was 0.51 enrichment R.
B12 came in with a binding signal of 0.567 enrichment R.
The figure for B13 is 1.29 enrichment R.
The molecule B14 registered a binding signal of 0.94 enrichment R.
With B15, the binding signal was found to be 0.716 enrichment R.
In turn, B16 returned a binding signal of 1.72 enrichment R.
Turning to B17, the binding signal is 0.623 enrichment R.
Regarding B18, the binding signal worked out at 1.58 enrichment R.
Regarding B19, the binding signal came to 0.887 enrichment R.
Molecule B20 registered a binding signal of 0.611 enrichment R.
B21 returned a binding signal of 1.35 enrichment R.
The molecule B22 gave a binding signal of 0.83 enrichment R.

Source of the values: paper PMC12136788.
